Laboratory results taken from article PMC7819943, “Rice protein-binding microarrays: a tool to detect cis-acting elements near promoter regions in rice”.
Some of the results follow.

molecular target: T1, OsWOX13 (Oryza sativa, UniProt Q5QMM3 1-267); experiment: protein-binding microarray (RPBM); PBS, 2% BSA, 51.3 ng/ul salmon testes DNA, 50 uM zinc acetate, 200 nM TF, 25 C, 1 h; high values mean tight binding; settings: protein: recombinant; tags: N-terminal polyhistidine and DsRed monomer fusion (pET32a); label: CyDye5-dUTP incorporated in the synthesized complementary strand; 3' TTTTT single-stranded linker to array surface; dsDNA, one strand shown
T1 sequence: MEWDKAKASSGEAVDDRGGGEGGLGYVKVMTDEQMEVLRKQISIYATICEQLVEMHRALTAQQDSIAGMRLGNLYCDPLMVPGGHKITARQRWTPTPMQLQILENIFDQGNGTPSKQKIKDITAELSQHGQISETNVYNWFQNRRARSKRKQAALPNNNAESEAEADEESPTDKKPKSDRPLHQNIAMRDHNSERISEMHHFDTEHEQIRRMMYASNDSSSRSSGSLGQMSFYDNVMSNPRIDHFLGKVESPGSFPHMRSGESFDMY
Summary of the method: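 In PBS with 2% BSA, salmon testes DNA and 50 µM zinc acetate, 200 nM protein was incubated on a custom Agilent array at 25 °C for 1 h and then washed off. The array had been made double-stranded by primer extension with Cy5-dUTP and blocked with 2% BSA. The proteins were transcription factors fused N-terminally to polyhistidine and DsRed, expressed in E. coli BL21-CodonPlus and purified on Ni–NTA. The binding signal is per-feature fluorescence intensity (arbitrary units) from an Axon 4000B scanner.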

Sequence | binding signal
ACATATGAACAGGCAATTGATTTTGGATCCAGGGTAAAAGCGGAGTCACCTAGTGCAG | 3260 fluorescence intensity (a.u.)
CTCTTGATAGACACATTCACGGTCCATCGCACTTGAAGCACGGAGTCACCTAGTGCAG | 25000 fluorescence intensity (a.u.)
CTAGATCATGTGTAATAATTTACTACGATGAACCTTGTTGCGGAGTCACCTAGTGCAG | 4320 fluorescence intensity (a.u.)
ATATTAAATTGTCAGTTTGTGTATCTCGGCTGATTTCTGTCGGAGTCACCTAGTGCAG | 24700 fluorescence intensity (a.u.)
TAATCAATTGATATTTATAGAAGGTTTCTTTGAACTGCAACGGAGTCACCTAGTGCAG | 6600 fluorescence intensity (a.u.)
ACATTCATTTCCGGTTGATTTGGCAGAAGAACTAACTTCTCGGAGTCACCTAGTGCAG | 4660 fluorescence intensity (a.u.)
TCAGAAATTCAAATCTGTCAAGCAATAATGCAAGGAGACACGGAGTCACCTAGTGCAG | 4470 fluorescence intensity (a.u.)
ATCAAATAATTATGAACAGATGGAAATGGACAATTTGTAGCGGAGTCACCTAGTGCAG | 19500 fluorescence intensity (a.u.)
TGATGACGAAATTAACAAGACTAACCGATCCATCAGAGACCGGAGTCACCTAGTGCAG | 11400 fluorescence intensity (a.u.)
ATGCGTGATGACTGATGAGTGACAACAACTAGTTGCCCTCCGGAGTCACCTAGTGCAG | 21100 fluorescence intensity (a.u.)
CACTAATTCCATTTCGCCGTTACGCCAAACTTGGACAAACCGGAGTCACCTAGTGCAG | 5170 fluorescence intensity (a.u.)
TTAAAATAATTGACAAGATAGATTAATATTTGGTATATCACGGAGTCACCTAGTGCAG | 26400 fluorescence intensity (a.u.)
ACCTCCTTGCAAAATTGCAAATTTGCAATACATCACTCAGCGGAGTCACCTAGTGCAG | 4530 fluorescence intensity (a.u.)
TTAAGCATAATTAATCCATCATTAGCAAATGTTTACTGTACGGAGTCACCTAGTGCAG | 12100 fluorescence intensity (a.u.)
TTGCACTGATTTTATAAGTTGAGGGATGTCTTGTATCCGGCGGAGTCACCTAGTGCAG | 4490 fluorescence intensity (a.u.)
AGCCTGACAACTAAATTGGGCTGGACTGGGCTGTAGGCGTCGGAGTCACCTAGTGCAG | 4470 fluorescence intensity (a.u.)
TTGATTAATAATAGTTATATCATGTTGGCTCACTCGATCGCGGAGTCACCTAGTGCAG | 33700 fluorescence intensity (a.u.)
CTAATTATACTTCCACGTCAATTAAGGATCTAATTATACTCGGAGTCACCTAGTGCAG | 9060 fluorescence intensity (a.u.)
GTCCGACGACATAATTGATTTTCTTGTTGTTCAGCTTGATCGGAGTCACCTAGTGCAG | 37800 fluorescence intensity (a.u.)
AAAGATAGTCAAATTTAGAGTAGTTTGATTTTGACCAAAGCGGAGTCACCTAGTGCAG | 5260 fluorescence intensity (a.u.)
GATTAGGTTAATTGAGATCTGCCTTGCTCTGCTCTGCTCGCGGAGTCACCTAGTGCAG | 21500 fluorescence intensity (a.u.)

Sequence | binding signal
AGAGTTGTAATTAACCTTTTCAGGTTGTATTGACTGCAAGCGGAGTCACCTAGTGCAG | 3760 fluorescence intensity (a.u.)
TCCTGACTGATAATACTTACCATCTTATTTATGACTTTGACGGAGTCACCTAGTGCAG | 23400 fluorescence intensity (a.u.)
TGAAATTTAACTTAATCCAATTGCATTTTGTAAGCAATTCCGGAGTCACCTAGTGCAG | 9680 fluorescence intensity (a.u.)
CTATTGAGACTAATTAATCTATGATTAGCCTGTGTGATGCCGGAGTCACCTAGTGCAG | 31000 fluorescence intensity (a.u.)
ACACCCTTTAATTTATATTCATTGTAATCTAACGGTGTAGCGGAGTCACCTAGTGCAG | 11000 fluorescence intensity (a.u.)
GTCATAATTTTAAAAGTTTAGGGGTTGATTCGGTCCAAATCGGAGTCACCTAGTGCAG | 8310 fluorescence intensity (a.u.)
CTATACAACAAATCATTAATTAGGCTCAAAAGAAAGAAAGCGGAGTCACCTAGTGCAG | 11100 fluorescence intensity (a.u.)
AACTTTTCCATCACATCGTTCTAATTTCTTCAAACTTCCACGGAGTCACCTAGTGCAG | 3690 fluorescence intensity (a.u.)
CTTGTCAAATTAACTCCCGCACATACAGCGTGGCACGAGGCGGAGTCACCTAGTGCAG | 4140 fluorescence intensity (a.u.)
CTGATTTATGTGCTCTGAAATTGTGAACCACCTGAAGTAGCGGAGTCACCTAGTGCAG | 9290 fluorescence intensity (a.u.)
GTTGACAGACGTGTATTCCTTAATTTGCAGCATGCTTACACGGAGTCACCTAGTGCAG | 40800 fluorescence intensity (a.u.)
AAGTAATTATAATCAGCCTTTGAGCCTTCTCCCGTGAGTGCGGAGTCACCTAGTGCAG | 43200 fluorescence intensity (a.u.)
ATGATTGGCTTGATACAGAAATGGAAGATGCTCCACAAAGCGGAGTCACCTAGTGCAG | 37400 fluorescence intensity (a.u.)
TTTGATGTTAGATTTAATAACACTATGTTGATGTGGTGCACGGAGTCACCTAGTGCAG | 6660 fluorescence intensity (a.u.)
ATTTCGGTTATTAATTGTGTATCGTACCAGGAATTATTTGCGGAGTCACCTAGTGCAG | 5400 fluorescence intensity (a.u.)
AATTTAAACACGTAATTAAGCTAAGCGAGTTGCAGCAAAACGGAGTCACCTAGTGCAG | 5050 fluorescence intensity (a.u.)
AATGACTGCTCCATTCCTGATCTGAATCAGTGGTTCCAACCGGAGTCACCTAGTGCAG | 10900 fluorescence intensity (a.u.)
CCTACAATTAAGGACGAAATGACACGTGGAAATAGACGTGCGGAGTCACCTAGTGCAG | 5710 fluorescence intensity (a.u.)
AATCTGTAATTTTGTGATAACTTCAATATTAAATATATAGCGGAGTCACCTAGTGCAG | 5930 fluorescence intensity (a.u.)
ATGTGATTAAAGGCCTCATCGTTTCGCTTATTCGTGAAATCGGAGTCACCTAGTGCAG | 14200 fluorescence intensity (a.u.)
ATTTGATTTAAAACCTCAGTTTTCGATTGAGAGAAAATATCGGAGTCACCTAGTGCAG | 4350 fluorescence intensity (a.u.)
